Counter-ions that a name gives are not always drawn. The list shows a part of the results.
test system: Schistosoma mansoni schistosomula; assay: phenotypic hit in primary schistosomula screen (any phenotype vs DMSO control) (binary (1 = hit, 0 = no phenotype)); higher = active (phenotype induced); settings: 1 µM; time (d): 7

SMILES | phenotypic hit
C=CC(C1=CC(=O)C(OC)=CC1=O)c1ccc(OC)cc1 (centres undefined) [4,4'-dimethoxydalbergione] | inactive: 0
COc1ccc(-c2cc(=O)c3c(O)c(OC)c(O[C@@H]4O[C@H](CO[C@@H]5O[C@@H](C)[C@H](O)[C@@H](O)[C@H]5O)[C@@H](O)[C@H](O)[C@H]4O)cc3o2)cc1 [pectolinarin] | active: 1
Cn1c(=O)[nH]c(=O)c2[nH]cnc21 [3-methylxanthine] | inactive: 0
O=C(C1CCCCC1)N1CC(=O)N2CCc3ccccc3C2C1 (centres undefined) [praziquantel] | active: 1
O=C(O)[C@@H](O)[C@H](O)[C@H](O)[C@@H](O)C(=O)O [mucic acid] | inactive: 0
COc1ccc2c(c1)c(CC(=O)O)c(C)n2C(=O)c1ccc(Cl)cc1 [Indomethacin] | inactive: 0
Oc1cc(O)c2c(c1)O[C@H](c1ccc(O)c(O)c1)[C@H](O)C2 [epicatechin] | inactive: 0
C=C1c2c(Cl)ccc(O)c2C(=O)C2=C(O)[C@]3(O)C(=O)C(C(N)=O)=C(O)[C@@H](N(C)C)[C@@H]3[C@@H](O)[C@H]12.O=C(O)c1cc(S(=O)(=O)O)ccc1O [meclocycline sulfosalicylate] | inactive: 0
O=C1C=C(O)C(=O)c2ccccc21 [lawsone] | inactive: 0
COc1ccc2c(c1OC)C(=O)O[C@@H]2[C@H]1c2c(cc3c(c2OC)OCO3)CCN1C [noscapine hydrochloride] | inactive: 0
O=C1c2c(O)cccc2C([C@@H]2O[C@H](CO)[C@@H](O)[C@H](O)[C@H]2O)c2cc(CO)cc(O)c21 (some centres undefined) [aloin] | inactive: 0
Nc1nc2[nH]cnc2c(=S)[nH]1 [thioguanine] | inactive: 0
CN(C)C(=O)C(CCN1CCC(O)(c2ccc(Cl)cc2)CC1)(c1ccccc1)c1ccccc1 [Loperamide hydrochloride] | inactive: 0
CC(=O)OC1CCC2(C)C(=CCC3C2CCC2(C)C(C(C)CCCC(C)C)CCC32)C1 (centres undefined) [cholesteryl acetate] | inactive: 0
CC(C)=CCC[C@@H](C)[C@H]1CC[C@@]2(C)C3=C(CC[C@]12C)[C@@]1(C)CC[C@H](O)C(C)(C)[C@@H]1CC3 [lanosterol] | inactive: 0
O=c1ccc2cc(O)c(O)cc2o1 [esculetin] | inactive: 0
C[C@H](CCC(=O)O)[C@H]1CC[C@H]2[C@@H]3[C@H](O)C[C@@H]4C[C@H](O)CC[C@]4(C)[C@H]3C[C@H](O)[C@]12C [cholic acid] | inactive: 0
Cc1cc(O)c2c(c1)C(=O)c1cccc(O)c1C2=O [chrysophanol] | inactive: 0
CC(C(=O)O)c1ccc(-c2ccccc2)c(F)c1 (centres undefined) [flurbiprofen] | inactive: 0
O=C(OCC(O)CO)c1ccccc1Nc1ccnc2cc(Cl)ccc12 (centres undefined) [glafenine] | inactive: 0
C[C@H]1O[C@@H](O[C@H]2[C@@H](O)C[C@H](O[C@H]3[C@@H](O)C[C@H](O[C@H]4CC[C@@]5(C)[C@H](CC[C@@H]6[C@@H]5C[C@@H](O)[C@]5(C)[C@@H](C7=CC(=O)OC7)CC[C@]65O)C4)O[C@@H]3C)O[C@@H]2C)C[C@H](O)[C@@H]1O [digoxin] | inactive: 0
COc1cc([S+](C)[O-])ccc1-c1nc2cccnc2[nH]1 (centres undefined) [sulmazole] | inactive: 0

SMILES | phenotypic hit
COc1ccccc1OCC(O)CO (centres undefined) [guaifenesin] | inactive: 0
COc1cc(C)c2c(c1C=O)Oc1c(c(C)c(O)c3c1C(O)OC3=O)OC2=O (centres undefined) [stictic acid] | inactive: 0
NC[C@@H]1O[C@H](O[C@H]2[C@@H](O)[C@H](O[C@@H]3[C@@H](O)[C@H](N)C[C@H](N)[C@H]3O[C@H]3O[C@H](CO)[C@@H](O)[C@H](O)[C@H]3N)O[C@@H]2CO)[C@H](N)[C@@H](O)[C@@H]1O [paromomycin sulfate] | inactive: 0
Cc1cc(=O)[nH]c(=S)[nH]1 [methylthiouracil] | inactive: 0
Cc1cccc(C)c1OCC(C)N (centres undefined) [mexiletine hydrochloride] | inactive: 0
Oc1ccc(/C=C/c2cc(O)cc(O)c2)cc1 [resveratrol] | inactive: 0
CC(=O)N1CCCC1C(=O)O (centres undefined) [n-acetylproline] | inactive: 0
CCOC(=O)C1=C(COCCN)NC(C)=C(C(=O)OC)C1c1ccccc1Cl (centres undefined) [amlodipine besylate] | inactive: 0
Oc1c(Cl)cc(Cl)c(Cl)c1Cc1c(O)c(Cl)cc(Cl)c1Cl [hexachlorophene] | active: 1
Cc1c(N(C)C)c(=O)n(-c2ccccc2)n1C [aminophenazone] | inactive: 0
CCOc1ccc2ccccc2c1C(=O)N[C@@H]1C(=O)N2[C@@H]1SC(C)(C)[C@@H]2C(=O)O [nafcillin sodium] | inactive: 0
CCN(CC)CCNC(=O)c1cc(Cl)c(N)cc1OC [Metoclopramide hydrochloride] | inactive: 0
CC1OC(OC2C(O)COC(OC3C(C)OC(OC4C(OC(=O)C56CCC(C)(C)CC5C5=CCC7C8(C)CCC(OC9OC(CO)C(O)C(O)C9O)C(C)(C)C8CCC7(C)C5(C)CC6O)OCC(O)C4O)C(O)C3O)C2O)C(O)C(O)C1O (centres undefined) [chrysanthellin a] | inactive: 0
CC1=NN(c2ccccc2)C(=O)C1 [3-methyl-1-phenyl-2-pyrazolin-5-one (mci-186)] | inactive: 0
Cn1cnc2c1c(=O)[nH]c(=O)n2C [Theobromine] | inactive: 0
CCC[C@@H]1C[C@@H](C(=O)N[C@@H]([C@H]2O[C@H](SC)[C@H](O)[C@@H](O)[C@H]2O)[C@H](C)Cl)N(C)C1 [clindamycin hydrochloride] | inactive: 0
O=C(O)CCNC(=O)c1ccccc1 [betamipron] | inactive: 0
O=C(N[C@H](CO)[C@H](O)c1ccc([N+](=O)[O-])cc1)C(Cl)Cl [chloramphenicol] | inactive: 0
COc1ccc(-c2coc3cc(OC)ccc3c2=O)cc1 [7,4'-dimethoxyisoflavone] | active: 1
C=C(C)C1(O)OC(=O)C=C1OC (centres undefined) [penicillic acid] | inactive: 0
C[n+]1c2cc(N)ccc2cc2ccc(N)cc21 [acriflavinium hydrochloride] | active: 1
NC/C=C/C(=O)O [t-4-aminocrotonic acid (taca)] | inactive: 0

SMILES | phenotypic hit
CCCc1occc(=O)c1/C=C/O [2-propyl-3-hydroxyethylenepyran-4-one] | inactive: 0
CC(C)[N+](C)(CCOC(=O)C1c2ccccc2Oc2ccccc21)C(C)C [propantheline bromide] | inactive: 0
CN(C)CCC=C1c2ccccc2COc2ccccc21 [doxepin hydrochloride] | active: 1
OCc1cccnc1 [nicotinyl tartrate] | inactive: 0
CC1=CC(=O)C(C(C)C)=CC1=O [thymoquinone] | inactive: 0
CN[C@@H]1[C@H](O)[C@H](NC)[C@H]2O[C@@]3(O)C(=O)C[C@@H](C)O[C@H]3O[C@@H]2[C@H]1O [spectinomycin hydrochloride] | inactive: 0
CCC[C@H]1CC2=C(C[C@@H](CC)CC3=C1C(=O)OC3=O)C(=O)OC2=O [byssochlamic acid] | inactive: 0
NS(=O)(=O)c1cc2c(cc1Cl)NC(C(Cl)Cl)NS2(=O)=O (centres undefined) [trichlormethiazide] | inactive: 0
CN[C@H](CC(=O)O)C(=O)O [N-Methyl-D-aspartic acid] | inactive: 0
Cc1onc(-c2ccccc2Cl)c1C(=O)N[C@@H]1C(=O)N2[C@@H]1SC(C)(C)[C@@H]2C(=O)O [cloxacillin sodium] | inactive: 0
C=C[C@@](C)(O)CCC1C(=C)CCC2[C@@](C)(CO)CCC[C@]12C (stereo partly drawn) [epi (13)torulosol] | inactive: 0
C[C@@H]1NC(=O)[C@@H](N)CNC(=O)[C@H](C2CCNC(=N)N2)NC(=O)/C(=C/NC(N)=O)NC(=O)[C@H](CNC(=O)CC(N)CCCN)NC1=O.N=C1NCC[C@H]([C@@H]2NC(=O)/C(=C/NC(N)=O)NC(=O)[C@H](CNC(=O)C[C@@H](N)CCCN)NC(=O)[C@H](CO)NC(=O)[C@@H](N)CNC2=O)N1 [capreomycin sulfate] | inactive: 0
N=c1[nH]c(=O)c2[nH]c(=O)c(=O)[nH]c2[nH]1 [leucopterin] | inactive: 0
CC(=O)Oc1cc(OC(C)=O)c2c(c1)O[C@H](c1ccc(OC(C)=O)c(OC(C)=O)c1)[C@@H](OC(C)=O)C2 [catechin pentaacetate] | inactive: 0
NC(=O)NCC(N)C(=O)O (centres undefined) [albizziine] | inactive: 0
CC(=O)O[C@@H]1CC2C(C)(C)C(=O)[C@@H]3O[C@@H]3[C@]2(C)C2CC[C@]3(C)C(=CC(=O)O[C@H]3c3ccoc3)[C@@]21C (stereo partly drawn) [1 (2)alpha-epoxydeoxydihydrogedunin] | inactive: 0
CC(C)CCC[C@@H](C)[C@H]1CC[C@H]2[C@@H]3CC(=O)[C@H]4C[C@@H](O)CC[C@]4(C)[C@H]3CC[C@]12C [5alpha-cholestan-3beta-ol-6-one] | inactive: 0
C[C@H]1c2cccc(O)c2C(=O)C2=C(O)[C@]3(O)C(=O)C(C(N)=O)=C(O)[C@@H](N(C)C)[C@@H]3[C@@H](O)[C@@H]21 [doxycycline hydrochloride] | inactive: 0
C=CC(C1=CC(=O)C(OC)=CC1=O)c1ccccc1 (centres undefined) [4-methoxydalbergione] | inactive: 0
O=C1c2ccc(O)cc2OC(c2cc(O)c(O)c(O)c2)C1O (stereo in doubt) [dihydrorobinetin] | inactive: 0

— the supplement of paper PMC2702839
